Data from PubChem BioAssay AID743279 (National Center for Advancing Translational Sciences (NCATS), 2014).
Screen size: about 360,000 compounds; about 17,000 (4.7%) were called active. The shares of active, inactive and inconclusive entries below differ from those in the screen. Cut-off read from the data, not from the text of the source: active = activity change below about -50%; inconclusive = mostly about -30% to -49%; inactive = weaker than that. The source holds several records for some structures; these can differ, active in one and inactive in another.

Experiment: qHTS for Inhibitors of Inflammasome Signaling: IL-1-beta AlphaLISA Primary Screen
Details: THP-1 LPS/ATP IL-1B secretion, 16 h; at 57.5 µM, stronger effect = lower value
Outline: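 Secreted IL-1B measured by AlphaLISA bead assay after 16 h compound exposure of THP-1 cells; compounds (final up to 57.5 uM) added 1 h before LPS (250 ng/mL) and ATP (1.25 mM) stimulation; lower signal means less secretion.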
% is set by controls: 0 for no effect and ±100 for the full control effect.

Q: With `O=C(O)c1nc2ccccc2nc1C(=O)O` as the molecule, how does the activity change read?
A: inconclusive: -40.2%

Q: For `NC(=O)c1ccc(NC(=O)CSc2nnc(-c3cccnc3)n2Cc2ccco2)cc1`, which activity change is on record?
A: inactive: -1.68%

Q: For `O=C(COC(=O)/C=C/c1ccc(Br)o1)NC1CCCCC1`, which activity change is on record?
A: inactive: 9.61%

Q: For `COc1ccccc1OCC(=O)O/N=C(\N)c1ccccn1`, which activity change is on record?
A: inconclusive: -36%

Q: For `O=C(Nc1cccc(O)c1)c1cc(-c2cccs2)on1`, which activity change is on record?
A: inconclusive: -31.4%

Q: For `C=CCn1c(NCc2c[nH]c3ccccc23)nc2ccccc21`, which activity change is on record?
A: inconclusive: -37.6%

Q: With `CN(C)C(C)(C)C#CCCCCC#CC(C)(C)N(C)C` as the molecule, how does the activity change read?
A: inconclusive: -30.1%

Q: For `COC1CC(C)C(OC)c2cc(O)cc(c2O)NC(=O)C(C)=CC=CC(C)C(OC(N)=O)C(C)=CC(C)C1OC` (centres undefined), which activity change is on record?
A: active: -101%

Q: Which activity change does the source give for `COc1cccc(NC(=O)Nc2ccc3nsnc3c2)c1` here?
A: active: -56.3%

Q: For `CC[N+]1(C)CC2CCC(C)(C1)C2(C)C` (centres undefined), which activity change is on record?
A: inactive: -3.74%

Q: For `C/C(O)=C(\N=Nc1cc(C)ccc1O)C(N)=O`, which activity change is on record?
A: inactive: 30.2%

Q: For `CCN(CC)CCOC(=O)c1ccc(Cl)cc1`, which activity change is on record?
A: inactive: 5.54%

Q: Which activity change does the source give for `N#C/C(=C\c1c(Oc2ccccc2F)nc2ccccn2c1=O)C(=O)NC1CCS(=O)(=O)C1` (centres undefined) here?
A: inconclusive: -30%

Q: With `COc1ccc(CCNCC(=O)Nc2ccc(C)c(S(=O)(=O)N(C)C)c2)cc1` as the molecule, how does the activity change read?
A: active: -75.7%

Q: For `CC(=O)Nc1cccc(NC(=O)/C=C/c2ccc(S(=O)(=O)N3CCOCC3)cc2)c1`, which activity change is on record?
A: inconclusive: -35.3%

Q: With `COc1ccc2cc(CN(CC3CCCO3)C(=S)NCc3ccco3)c(=O)[nH]c2c1` (centres undefined) as the molecule, how does the activity change read?
A: inactive: -2.15%

Q: With `CC(C)OCCCNC(=O)CN1C(=O)CSc2ccc(S(=O)(=O)N3CCCCC3)cc21` as the molecule, how does the activity change read?
A: inactive: -11.7%

Q: For `CC(=O)c1ccc(NC(=O)c2cnsn2)cc1`, which activity change is on record?
A: inactive: 2.78%

Q: With `CCSc1ccc([C@@H]2[C@H]3C(=O)N(CC)C(=O)[C@H]3[C@]3(C(=O)OC)CCCCN23)cc1` as the molecule, how does the activity change read?
A: inactive: 8.22%

Q: Which activity change does the source give for `O=C(c1ccc(Cl)c([N+](=O)[O-])c1)N1CCN(S(=O)(=O)c2ccc(Cl)cc2)CC1` here?
A: inconclusive: -42.8%

Q: For `Cn1c(=O)[nH]c(=O)c2c1nc(N1CCN(Cc3ccccc3)CC1)n2CCCc1ccccc1`, which activity change is on record?
A: inactive: 1.45%

Q: With `Cc1ncoc1C(=O)N1CCc2c([nH]c3ccccc23)C1c1ccccc1F` (centres undefined) as the molecule, how does the activity change read?
A: inactive: -6.76%

Q: Which activity change does the source give for `CCCN1C2CCCC1CC(NC(=S)Nc1cccc(C)c1C)C2` (centres undefined) here?
A: inconclusive: -31%

Q: Which activity change does the source give for `N#CCC(=O)NCC1(c2ccccc2)CCCC1` here?
A: inactive: 19.7%

Q: For `COCCNC(=O)C1(C)CCCN(C(=O)c2cc(C)oc2C)C1` (centres undefined), which activity change is on record?
A: inactive: 3.33%

Q: With `Cc1ccc2sc(N(CCCN(C)C)C(=O)CN3C(=O)c4ccccc4C3=O)nc2c1C` as the molecule, how does the activity change read?
A: inconclusive: -34.6%

Q: Which activity change does the source give for `Cc1ccc(-n2c(=O)c3ccccc3n(CC(=O)NCc3ccco3)c2=O)cc1` here?
A: inactive: 6.1%

Q: For `O=C1/C(=C\c2ccc(Br)o2)SC(=Nc2ccccc2)N1c1ccccc1`, which activity change is on record?
A: inconclusive: -32.3%

Q: For `Cc1ccc(OCCCSc2n[nH]c(N)n2)cc1`, which activity change is on record?
A: inconclusive: -33.1%

Q: Which activity change does the source give for `O=c1[nH]c2cc3c(cc2cc1C(c1nnnn1CC1CCCO1)N1CCCCCC1)OCCO3` (centres undefined) here?
A: inactive: -4.27%

Q: With `Cc1ccc(S(=O)(=O)N2c3ccccc3OC(C(=O)OC(C)(C)C)(C(=O)OC(C)(C)C)C2CC(=O)c2ccccc2)cc1` (centres undefined) as the molecule, how does the activity change read?
A: inactive: -27.5%

Q: With `COc1ccc(C2(C)ON(c3ccccc3C(F)(F)F)C2=O)cc1` (centres undefined) as the molecule, how does the activity change read?
A: active: -62.1%

Q: With `CC(C)(C)OC(=O)NCCCCCc1nnc(SCc2ccccc2)o1` as the molecule, how does the activity change read?
A: inconclusive: -45.7%

Q: With `CN(C)c1cccc(NC(=O)c2ccc(-c3ccc(F)c(F)c3)c3ccoc23)c1` as the molecule, how does the activity change read?
A: active: -82.3%

Q: For `Oc1ccc(-c2nccc(-c3ccccn3)n2)cc1`, which activity change is on record?
A: inconclusive: -45.3%

Q: Which activity change does the source give for `CC(C)C[C@H](N)c1cn([C@@H](CCCCN)C(=O)N2CCNCC2)nn1` here?
A: inconclusive: -43.1%

Q: With `O=C(Nc1ccccc1)C1C2CCC3C(CCC21)C3(Cl)Cl` (centres undefined) as the molecule, how does the activity change read?
A: inactive: -22.5%

Q: With `CC(C)(C)c1csc(NC(=O)c2cccnc2)n1` as the molecule, how does the activity change read?
A: inconclusive: -32.4%

Q: With `Nc1ccc(-c2nnc(-c3ccc(N)cc3)o2)cc1` as the molecule, how does the activity change read?
A: inconclusive: -32.9%

Q: With `CCCCNC(=O)C1(C)CCN1Cc1ccc(C(=O)OCC)cc1` (centres undefined) as the molecule, how does the activity change read?
A: inactive: 41.6%

Q: For `COc1ccccc1-c1cn[nH]c1-c1ccc(OCc2ccccc2)cc1O`, which activity change is on record?
A: active: -99.4%

Q: Which activity change does the source give for `CC(=O)Nc1ccc(S(=O)(=O)N2CCC(N3CCCCCC3)CC2)cc1` here?
A: inconclusive: -37.4%

Q: For `CCCS(=O)(=O)N1CCN(C(=O)COc2ccccc2)CC1`, which activity change is on record?
A: inactive: -3.53%

Q: Which activity change does the source give for `Cc1ccc(Cn2c(C)c(C(=O)NCc3ccccc3C(F)(F)F)sc2=O)cc1` here?
A: inconclusive: -37.3%

Q: For `CCn1c(CSc2nnc(C)n2-c2ccccc2)nc2cc(S(=O)(=O)N(C)C)ccc21`, which activity change is on record?
A: inactive: 16.9%

Q: With `CCCCNS(=O)(=O)c1ccc(NC(=O)C(Sc2ccccc2)c2ccccc2)cc1` (centres undefined) as the molecule, how does the activity change read?
A: inconclusive: -34.3%

Q: Which activity change does the source give for `Cc1nc2c(C)cccn2c1/C(O)=C1\C(=O)C(=O)N(CCN(C)C)C1c1ccco1` (centres undefined) here?
A: inactive: 24.4%

Q: With `CCN(CCO)c1ccc(-n2c(N)c(C(=O)OC)c3nc4ccccc4nc32)cc1` as the molecule, how does the activity change read?
A: active: -53.7%

Q: For `Cc1c(Cl)sn(-c2ccc(Cl)cc2)c1=O`, which activity change is on record?
A: inconclusive: -33.7%

Q: For `Cc1ccc2[nH]cc(C(=O)CCl)c2c1`, which activity change is on record?
A: active: -101%

Q: For `CN(C)C(C(=O)Nc1cc(Cl)cc(Cl)c1)c1ccccc1` (centres undefined), which activity change is on record?
A: inconclusive: -37.8%

Q: Which activity change does the source give for `CCC(CC)C(=O)N(C)c1c(C)nc2c(OCc3ccc(Cl)cc3Cl)cccn12` here?
A: inconclusive: -37.2%

Q: For `COc1ccc(N(C(=O)c2snc(C(N)=O)c2N)C(C(=O)NC2CCCCC2)c2ccc(C)o2)cc1` (centres undefined), which activity change is on record?
A: active: -50.3%

Q: With `CCOc1cccc(C(=O)NC(=S)Nc2cccc(C)c2)c1` as the molecule, how does the activity change read?
A: inconclusive: -30.4%

Q: Which activity change does the source give for `Cc1ccccc1OCC(=O)Nc1ccc(N2CCN(C)CC2)c(Cl)c1` here?
A: inconclusive: -36.1%

Q: With `O=C(OCc1ccc(C(=O)c2ccccc2)cc1)c1cccc(-c2nnc(-c3ccccc3)o2)c1` as the molecule, how does the activity change read?
A: inactive: -8.7%

Q: Which activity change does the source give for `O=C(CCc1ccccc1)Nc1cc(S(=O)(=O)N2CCOCC2)ccc1N1CCCC1` here?
A: inactive: -6.62%

Q: Which activity change does the source give for `Cc1cc(NS(=O)(=O)c2ccc(Nc3nc(-c4sc(N)nc4C)cs3)cc2)no1` here?
A: inactive: 16.7%

Q: Which activity change does the source give for `COc1ccc(Nc2cc(C)nc3c(C)cccc23)cc1OC` here?
A: inconclusive: -46.5%

Q: For `Clc1ccc(-c2nnc(C3CCCCC3)o2)cc1`, which activity change is on record?
A: inconclusive: -34.2%

Q: With `C=CC[C@@H](Cc1ccc(F)cc1)C(=O)OC[C@@H]1CCCN1C(=O)[C@H](CC=C)CC(=O)N[C@H](CO)Cc1ccccc1` as the molecule, how does the activity change read?
A: active: -69.7%

Q: For `CC(C)(O)C#Cc1ccc(C(=O)Nc2ccc3c(c2)OCO3)s1`, which activity change is on record?
A: active: -52.5%

Q: With `CCN1CCN(CCCOc2ccc(-c3ccccc3)cc2)CC1` as the molecule, how does the activity change read?
A: active: -55.5%

Q: With `CC1CC(C)CN(S(=O)(=O)c2ccc3c(c2)CCN3C(=O)CCC(=O)O)C1` (centres undefined) as the molecule, how does the activity change read?
A: inconclusive: -42.4%

Q: Which activity change does the source give for `C/C(=N/NC(=O)c1cccc(N2CCCC2=O)c1)c1ccc(Br)cc1` here?
A: inconclusive: -38.5%

Q: With `Cc1cc(-c2nnc(SCC(=O)c3ccc(F)cc3)o2)no1` as the molecule, how does the activity change read?
A: inconclusive: -34.2%

Q: Which activity change does the source give for `Cc1ccc(C)c(C(C)NC(=O)c2ccccc2Br)c1` (centres undefined) here?
A: inconclusive: -39.5%

Q: Which activity change does the source give for `O=C1C=Cc2cccc3ccc(O)c1c23` here?
A: inconclusive: -48.7%

Q: For `c1ccc(-c2csc(Nc3cccnc3)n2)cc1`, which activity change is on record?
A: inconclusive: -38.3%

Q: Which activity change does the source give for `Cc1onc(-c2c(Cl)cccc2Cl)c1C(=O)N1C(C)CCCC1C` (centres undefined) here?
A: inactive: -2.53%

Q: Which activity change does the source give for `CCC(CO)Oc1cc(NCc2ccc(C(F)(F)F)cc2)c2ncn(C(C)C)c2c1` (centres undefined) here?
A: inactive: -25%

Q: For `CCc1ccc(-c2cc(C(=O)NN3CCOCC3)c3ccccc3n2)s1`, which activity change is on record?
A: inconclusive: -33.9%

Q: For `COc1cc2[nH]c(=O)n(CCCC(=O)N3CC=C(c4ccccc4)CC3)c(=O)c2cc1OC`, which activity change is on record?
A: inconclusive: -32.3%

Q: With `N=c1scc(-c2ccccc2)n1/N=C/c1ccco1` as the molecule, how does the activity change read?
A: inconclusive: -30.3%

Q: For `Cc1ccc(CNC(=O)C2CC3Cn4c(nc5cc(Cl)c(Cl)cc54)C3N2C)o1` (centres undefined), which activity change is on record?
A: inactive: -5.57%

Q: With `COc1ccc(C(=O)O)cc1S(=O)(=O)NCc1ccncc1` as the molecule, how does the activity change read?
A: inactive: 3.26%

Q: For `CCCCN(CCCC)CCCNC(=O)Cn1cc2c(n1)-c1c(oc(C(=O)N3CCCC3)c1C)CC2`, which activity change is on record?
A: inconclusive: -40.2%

Q: For `Cc1ccsc1C=Nc1ccc(O)cc1`, which activity change is on record?
A: active: -99.1%

Q: Which activity change does the source give for `Cc1ccn2c(NCc3ccccc3)c(-c3cccc(SC4CCCCC4)c3)nc2c1` here?
A: active: -79.4%

Q: Which activity change does the source give for `Cc1ccc(N2C(=O)SC(N(CC(=O)O)c3ccc(C)cc3)C2=O)cc1` (centres undefined) here?
A: inactive: 18.1%

Q: Which activity change does the source give for `CCOc1ccc(NC(=O)N2CCC(n3c(=O)[nH]c4ccccc43)CC2)cc1` here?
A: inconclusive: -33.2%

Q: With `COc1ccc2c(c1)C=C(CN1CCN(Cc3ccccc3C)C(CCO)C1)CO2` (centres undefined) as the molecule, how does the activity change read?
A: inconclusive: -42.5%

Q: With `COCCn1nnnc1C(C(C)C)N1CCSCC1` (centres undefined) as the molecule, how does the activity change read?
A: inactive: 14.4%

Q: For `CN(c1ccccc1)S(=O)(=O)c1cc(C(=O)NCc2ccco2)ccc1Cl`, which activity change is on record?
A: inconclusive: -35%

Q: For `CC(=O)NC(=S)Nc1sc2c(c1C(N)=O)CCC(C)C2` (centres undefined), which activity change is on record?
A: inconclusive: -46.6%

Q: With `COc1cccc(C(=S)N2CCOCC2)c1OS(=O)(=O)c1ccc(Cl)cc1` as the molecule, how does the activity change read?
A: inactive: 38.4%

Q: For `COc1ccc(S(=O)(=O)N2CCN(C(=O)CN3C(=O)NC(C)(C)C3=O)CC2)cc1`, which activity change is on record?
A: inactive: 0%

Q: With `Clc1cccc(CSc2ccc(-c3cccnc3)nn2)c1` as the molecule, how does the activity change read?
A: inconclusive: -41%

Q: Which activity change does the source give for `Cc1ccc(SCCC(=O)OCC(=O)Nc2ccc(S(N)(=O)=O)cc2)cc1` here?
A: inconclusive: -32.8%
